Results: PMC6057269
These are yes or no findings as the source states them, for the method shown. For some of these results: In cells and extracts the contact can be indirect. Some binding calls cover weakened binding; strength is not graded here. For some of these results: Sequences can lack the tags named with a protein.

Protein sequences, listed by entry. Tags and fused reporters are not part of them. Lines headed by an entry give the natural chain unless they say otherwise; changes in a name come on top. Chains listed by the source or under a name are the forms on record and can include a tag or linker. Residues count along the entry.
ITSN1 SH3d (aa1076-1138), recombinant (Q15811, residues 1076-1138): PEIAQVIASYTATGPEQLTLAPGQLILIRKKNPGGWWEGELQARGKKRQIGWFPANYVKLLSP
GST-tagged ITSN1 SH3d (aa1076-1138) R1119A (Q15811-1, form named): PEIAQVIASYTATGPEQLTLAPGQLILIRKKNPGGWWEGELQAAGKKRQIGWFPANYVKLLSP
GST-tagged ITSN1 SH3d (aa1076-1138) I1078S (Q15811-1, form named): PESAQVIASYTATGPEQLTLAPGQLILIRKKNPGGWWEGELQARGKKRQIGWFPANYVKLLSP
GST-tagged ITSN1 SH3d (aa1076-1138) R1119E (Q15811-1, form named): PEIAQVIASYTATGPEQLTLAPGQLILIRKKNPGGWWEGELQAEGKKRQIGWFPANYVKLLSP
GST-tagged ITSN1 SH3d (aa1076-1138) I1078K (Q15811-1, form named): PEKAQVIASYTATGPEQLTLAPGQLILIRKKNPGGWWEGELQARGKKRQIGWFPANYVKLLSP
UniProt Q9WVE9: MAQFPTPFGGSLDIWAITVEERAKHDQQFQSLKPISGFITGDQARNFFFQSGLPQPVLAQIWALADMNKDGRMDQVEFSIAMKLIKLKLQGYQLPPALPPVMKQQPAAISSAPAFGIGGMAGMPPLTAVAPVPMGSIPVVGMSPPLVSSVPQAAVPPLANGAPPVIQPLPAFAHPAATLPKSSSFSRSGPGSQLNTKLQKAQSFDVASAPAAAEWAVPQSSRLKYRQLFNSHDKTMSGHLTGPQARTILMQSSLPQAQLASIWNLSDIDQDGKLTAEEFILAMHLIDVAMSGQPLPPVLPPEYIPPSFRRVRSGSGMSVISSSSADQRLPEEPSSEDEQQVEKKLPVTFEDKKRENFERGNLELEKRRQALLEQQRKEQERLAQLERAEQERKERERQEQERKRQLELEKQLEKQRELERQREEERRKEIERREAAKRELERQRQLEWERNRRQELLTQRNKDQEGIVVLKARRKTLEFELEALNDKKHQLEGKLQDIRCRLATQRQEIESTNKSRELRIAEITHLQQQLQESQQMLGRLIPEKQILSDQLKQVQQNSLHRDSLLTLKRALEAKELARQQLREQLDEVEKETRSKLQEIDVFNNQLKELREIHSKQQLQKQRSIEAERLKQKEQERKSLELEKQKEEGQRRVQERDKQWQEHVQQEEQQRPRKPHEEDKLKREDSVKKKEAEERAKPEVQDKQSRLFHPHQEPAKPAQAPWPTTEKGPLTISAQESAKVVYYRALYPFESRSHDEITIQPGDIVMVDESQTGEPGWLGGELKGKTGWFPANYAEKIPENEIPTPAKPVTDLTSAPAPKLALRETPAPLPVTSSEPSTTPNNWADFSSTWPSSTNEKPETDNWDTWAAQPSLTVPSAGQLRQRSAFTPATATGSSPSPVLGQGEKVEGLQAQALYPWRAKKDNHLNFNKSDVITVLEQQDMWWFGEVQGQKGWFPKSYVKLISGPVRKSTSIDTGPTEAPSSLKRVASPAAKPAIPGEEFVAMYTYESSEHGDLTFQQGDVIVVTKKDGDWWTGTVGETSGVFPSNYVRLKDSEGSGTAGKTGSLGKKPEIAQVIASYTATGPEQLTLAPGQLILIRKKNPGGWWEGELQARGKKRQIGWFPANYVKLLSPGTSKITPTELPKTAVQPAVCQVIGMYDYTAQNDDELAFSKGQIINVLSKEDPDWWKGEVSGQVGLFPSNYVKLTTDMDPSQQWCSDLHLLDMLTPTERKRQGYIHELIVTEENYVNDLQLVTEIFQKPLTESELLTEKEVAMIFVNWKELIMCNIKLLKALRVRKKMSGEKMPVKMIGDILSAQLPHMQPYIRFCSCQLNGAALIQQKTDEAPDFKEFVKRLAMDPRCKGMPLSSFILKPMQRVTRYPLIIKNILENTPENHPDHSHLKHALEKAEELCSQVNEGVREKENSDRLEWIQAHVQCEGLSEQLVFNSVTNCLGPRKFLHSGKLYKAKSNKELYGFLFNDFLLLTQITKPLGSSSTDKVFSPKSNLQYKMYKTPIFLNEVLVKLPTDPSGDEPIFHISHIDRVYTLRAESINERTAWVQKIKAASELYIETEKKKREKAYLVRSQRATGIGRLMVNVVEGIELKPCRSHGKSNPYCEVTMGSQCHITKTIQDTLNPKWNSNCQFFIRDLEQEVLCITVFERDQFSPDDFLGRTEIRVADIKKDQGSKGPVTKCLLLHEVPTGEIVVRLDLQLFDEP
UniProt O08816: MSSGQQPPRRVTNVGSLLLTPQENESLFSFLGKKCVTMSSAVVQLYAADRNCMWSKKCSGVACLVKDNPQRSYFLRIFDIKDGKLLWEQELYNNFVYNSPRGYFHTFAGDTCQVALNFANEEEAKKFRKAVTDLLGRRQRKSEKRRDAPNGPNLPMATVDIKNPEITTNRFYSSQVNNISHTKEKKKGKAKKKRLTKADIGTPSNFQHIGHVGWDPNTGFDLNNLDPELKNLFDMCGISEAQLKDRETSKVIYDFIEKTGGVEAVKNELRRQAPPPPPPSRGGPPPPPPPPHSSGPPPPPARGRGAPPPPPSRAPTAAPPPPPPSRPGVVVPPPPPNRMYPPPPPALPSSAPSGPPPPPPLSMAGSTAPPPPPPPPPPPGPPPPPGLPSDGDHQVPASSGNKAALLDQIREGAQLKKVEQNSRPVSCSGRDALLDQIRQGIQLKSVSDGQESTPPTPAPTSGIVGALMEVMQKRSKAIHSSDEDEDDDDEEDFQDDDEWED

What was measured:
[1] = biological target: GST-tagged ITSN1 SH3d (aa1076-1138) R1119A (human) (UniProt Q15811); test: pull-down; GST-tagged SH3 domains on glutathione beads incubated with recombinant protein for 10 min at room temperature, 6 washes; Coomassie stained gel; both purified
[2] = biological target: GST-tagged ITSN1 SH3d (aa1076-1138) I1078S (human) (UniProt Q15811); test: as above
[3] = biological target: GST-tagged ITSN1 SH3d (aa1076-1138) R1119E (human) (UniProt Q15811); test: as above
[4] = biological target: GST-tagged ITSN1 SH3d (aa1076-1138) I1078K (human) (UniProt Q15811); test: as above
[5] = biological target: GST-tagged FCHSD2 SH3-2 (aa568-629), wild type (human) (UniProt O94868); test: pull-down; GST-tagged SH3 domains on glutathione beads incubated with rat brain lysate for 1 h at 4°C, 6 washes; immunoblots for N-WASP and ITSN1; only the target purified
[6] = biological target: T1, GST-tagged FCHSD1 SH3-2 (aa544-607) (mouse) (UniProt Q6PFY1); test: as above
T1 sequence: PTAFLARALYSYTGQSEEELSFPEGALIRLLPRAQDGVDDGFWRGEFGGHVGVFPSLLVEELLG

[7] = biological target: GST-tagged FCHSD2 SH3-2 (aa568-629) V622K+L623K (human) (UniProt O94868); test: pull-down; GST-tagged SH3 domains on glutathione beads incubated with recombinant protein for 10 min at room temperature, 6 washes; Coomassie stained gel; both purified
[8] = biological target: GST-tagged FCHSD2 SH3-2 (aa568-629) Y576S+F607S (human) (UniProt O94868); test: as above
[9] = biological target: T2, GST-tagged FCHSD1 SH3-1 (aa466-527) (mouse) (UniProt Q6PFY1); test: pull-down; GST-tagged SH3 domains on glutathione beads incubated with rat brain lysate for 1 h at 4°C, 6 washes; immunoblots for N-WASP and ITSN1; only the target purified
T2 sequence: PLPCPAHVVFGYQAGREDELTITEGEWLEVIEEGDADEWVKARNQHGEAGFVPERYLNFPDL

[10] = biological target: T3, GST-tagged FCHSD2 SH3-1 (aa469-530) (human) (UniProt O94868); test: as above
T3 sequence: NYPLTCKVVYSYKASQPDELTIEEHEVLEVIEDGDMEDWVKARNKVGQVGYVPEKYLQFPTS

Q: “FCHSD2 SH3-2 (aa568-629), recombinant (from UniProt O94868-1 568-629) (domain or fragment)” was tested. Which binding [1] did it give?
A: The binding was “no binding”.

Q: And the binding [2]?
A: Its binding is “no binding”.

Q: What about the binding [3] of the same substance?
A: Its binding is “no binding”.

Q: And the binding [4]?
A: The binding was “no binding”.

Q: Which binding [5] does the source give for “Intersectin1 (endogenous, brain extract) (from UniProt Q9WVE9 1-1713)” here?
A: Its binding is “binds”.

Q: What about the binding [6] of the same substance?
A: The binding was “binds”.

Q: “ITSN1 SH3d (aa1076-1138), recombinant (from UniProt Q15811-1 1076-1138) (domain or fragment)” was tested. Which binding [7] did it give?
A: Its binding is “no binding”.

Q: What about the binding [8] of the same substance?
A: Its binding is “no binding”.

Q: “N-WASP (endogenous, brain extract) (from UniProt O08816 1-501)” was tested. Which binding [9] did it give?
A: Its binding is “binds”.

Q: And the binding [10]?
A: The binding was “binds”.
